Results on 76 molecules are retold here after PubChem BioAssay (NCI).

Several values for one entry are separate records, joined by “and”; a condition that tells them apart may be missing. Equal values may be shown once.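 All cell lines were grown in 96-well plates and treated with compound for 48 hours. At the GI50, growth is halved. Definition used: TGI = concentration required for complete inhibition of growth.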 Bounds are passed on as bounds.

This assay relates to NCI-H322M lung. The experiment in a line: NCI tumour cell line growth inhibition, 48 h.
`CC(=O)NC1C(OCc2ccccc2)OC(CO)C(O)C1OC(C)C(=O)NC(C(=O)NC(CCC(=O)NCCCNc1ccc([N+](=O)[O-])c2[nH]c3ccccc3c(=O)c12)C(N)=O)C(C)C` (stereo unspecified) had a TGI greater than 100 µM.
For `COC(=O)[C@]1(C)CCC[C@@]2(C)C3=C(CC[C@H]12)C[C@@H](CC(OC(C)=O)OC(C)=O)[C@@H](C)C3`, the GI50 is 16 µM and the TGI was found to be 38.6 µM.
Turning to `CC(=O)OC1CC2(C)C(=CC1C1SCCS1)CCC1C2CCC2(C)C(OC(C)=O)CCC12` (stereo unspecified), the TGI is greater than 100 µM.
Still for that read-out and setting: next, `O=C1C(Cl)N(c2ccc([N+](=O)[O-])cc2)C1c1c[nH]c2ccccc12` (stereo unspecified): greater than 100 µM; `CC(NNC(=S)N1CCN(c2ccccn2)CC1)c1nccc2ccccc12` (stereo unspecified): 13.1 µM.
In the case of `COc1cc2c(cc1OCC(=O)Nc1ccc(Cl)cc1C(=O)c1ccccc1Cl)N=CC1CCCN1C2=O` (stereo unspecified), the GI50 is 12.9 µM and the TGI worked out at 26 µM.
On to `O=C1/C=C/[C@@H](O)[C@@H]2C[C@@H](O)C[C@H]2/C=C/CCC[C@H](CCO)O1`, for which the GI50 is 0.319 µM and the TGI is greater than 100 µM.
Regarding `O=C1OC(OC/C(Br)=C(\Br)COC2OC(=O)C(Cl)=C2Cl)C(Cl)=C1Cl` (stereo unspecified), the TGI was found to be 33.9 µM.
As for `CN(C(=O)C(C)(C)C)c1ccccc1I(=O)=O`, the GI50 is greater than 100 µM and the TGI is greater than 100 µM.
Take `Cc1cc(I)cc(CN(C)CCCN2CCC(C)CC2)c1O`: the GI50 was 16.6 µM and the TGI stood at 37.6 µM.
As to `CCOC(=O)C1=C(Nc2ccc(OC)cc2)C(N)=NC1=N`, the GI50 is 4.66 µM and the TGI is greater than 100 µM.
The molecule `N#Cc1ccc(-c2ccc(Cl)cc2)n(C2OC(CO)C(O)C(O)C2O)c1=S` (stereo unspecified) yielded a TGI greater than 100 µM.
For `O=C1C(c2ccccc2)=C(c2ccccc2)C1(Cl)Cl`, the TGI turned out to be 23.7 µM.
On the same count and under the same terms, next, `Clc1ccc2c(NC3CCC(N4CCCCC4)CC3)ccnc2c1` (stereo unspecified): 65.6 µM.
For `Cc1cc(OCc2ccc(C(F)(F)F)cc2)c2c(c1)C(=O)C=C(NCCN1CCCC1)C2=O`, the GI50 was 3.66 µM and the TGI came out at 11.8 µM.
As to `Cc1cc(-c2ccccc2)nc(Nc2cc3ccccc3[nH]2)n1`, the TGI was greater than 100 µM.
In turn, `COC(=O)/C1=C/C=C\C[C@@]2(C)CC(c3ccoc3)OC(=O)[C@@H]2CC[C@H]1C` (stereo partly specified) displayed a TGI greater than 25 µM.
Molecule `COc1cc(C(c2ccccc2)N2C(=O)CC[C@H]2C(=O)O)cc(OC)c1OC` (stereo partly specified) yielded a TGI greater than 100 µM.
In turn, `N=C1C=CC(=C(c2ccc(N)cc2)c2ccc(N)cc2)C=C1` registered a TGI of 28.5 µM.
Still for that read-out and setting: next, `C[C@]12CC[C@H]3[C@@H](CC[C@]4(O)C[C@@H](O)CC[C@]34C=O)[C@@]1(O)CC[C@@H]2C1=CC(=O)OC1`: 14.7 µM.
As for `C[C@@H]1CC[C@@H]2[C@@H]1[C@H](OC(=O)/C=C/C1CCCCC1)[C@]1(C3CCCCC3)C[C@@H](OC(=O)CO)[C@@]2(C)O1`, the GI50 was 15.6 µM and the TGI is 29 µM.
`N#CC1=C(O)NC(O)=C(C#N)C1c1c(Cl)cccc1Cl`: the TGI was greater than 100 µM.
Regarding `CC1(C)OCC2OC(n3cnc4c(N)nc(Cl)nc43)C(OS(C)(=O)=O)C2O1` (stereo unspecified), the TGI is greater than 100 µM.
On the same count and under the same terms, the value for `N#CCCN(CCCCN(CCC#N)C(=O)Nc1ccccc1)C(=O)Nc1ccccc1` was greater than 100 µM; that for `CCn1c(CCCc2nc3c([nH]2)c(=O)n(C)c(=O)n3C)nc2c1c(=O)n(C)c(=O)n2C` was greater than 100 µM.
Molecule `CCOP(=O)(OCC)C(Nc1ccc(Cl)cc1)c1ccc(F)cc1` (stereo unspecified) showed a TGI greater than 100 µM.
With `COc1ccc(/C(=N/O)c2ccccc2C2=Nc3ccccc3C(NCc3ccccc3)O2)cc1C` (stereo unspecified), the TGI was greater than 100 µM.
Consider `O=C1c2ccccc2C(=O)N1CC#CCO`, for which the TGI is greater than 100 µM.
For the molecule `O=C1C2=C(C(=O)c3ccccc31)C(O)(S(=O)(=O)O)C(O)(S(=O)(=O)O)C1N=CC=CC21` (stereo unspecified), the GI50 is 2.74 µM and 2.88 µM; the TGI is 23.5 µM and 12.6 µM.
The molecule `COC(=O)NC(Cc1ccccc1)NC(=O)OC(C)(C)C` (stereo unspecified) came in with a TGI greater than 100 µM.
`O=C1CCC2(O)c3ccccc3C2Cc2ccccc21` (stereo unspecified) yielded a TGI greater than 100 µM.
For `CCC(=O)OCOc1ccc(/C=C2\CCC(CN(C)C)C2=O)cc1` (stereo unspecified), the TGI came out at 30.5 µM.
`C/C(=N\N=C(N)N)C(CN1CCOCC1)C(c1ccccc1)c1c(O)c2ccccc2oc1=O` (stereo unspecified) yielded a TGI greater than 100 µM.
Regarding `CCC[N+](C)(C)CCCNC(=O)c1c(O)c2ccccc2[nH]c1=O`, the TGI is greater than 100 µM.
Still for that read-out and setting: the value for `CCCCCc1cc2cc3c(c(O)c2c(=O)[nH]1)C1(CCC3)C(=O)c2c(O)ccc(O)c2C1=O` was greater than 100 µM; that for `CCOc1ccc2c(c1)C(/C(C(Cl)=C(Cl)Cl)=[N+](/[O-])OC(=O)c1ccccc1)=N2` was greater than 100 µM.
Still for that read-out and setting: the value for `O=C(O)c1cc(NCc2cc(O)ccc2O)ccc1O` was greater than 100 µM.
As to `c1ccc2c(N=NSc3ncnc4nc[nH]c34)c3ccccc3nc2c1`, the GI50 is 2.52 µM and the TGI was 8.6 µM.
As to `O=C(NC1CCC[C@H]1OC(=O)c1ccccc1)c1ccccc1` (stereo partly specified), the TGI was greater than 100 µM.
Take `Clc1nc2nc(N3CCNCC3)nc(N3CCCC3)c2[nH]1`: the TGI is 30 µM.
Turning to `CCC(=O)NC1=C(Cl)C(=O)C(NC(=O)CC)=C(Cl)C1=O`, the GI50 was greater than 100 µM and the TGI is greater than 100 µM.
Regarding `C=CCC1(CN(C)C)CC/C(=C\c2ccc3c(c2)OCO3)C1=O` (stereo unspecified), the TGI was greater than 100 µM.
`CC1(C)CCC2=C(O1)c1ccccc1C(=Nc1ccc([N+](=O)[O-])cc1)C2=O` yielded a TGI of 30.4 µM.
As to `COc1cc2c3c(n(C)c(=O)c2cc1OC)-c1cc2c(cc1/C3=C\CCCCl)OCO2`, the TGI is greater than 100 µM.
Turning to `COc1ccc(C2N(c3ccc(C)c(N=C=O)c3)C(=O)N3C(c4ccc(OC)cc4)N(c4ccc(C)c(N=C=O)c4)C(=O)N23)cc1` (stereo unspecified), the TGI was greater than 100 µM.
For the molecule `Cc1ccsc1C(NC(=O)c1ccccc1)c1cc(Cl)c2cccnc2c1O` (stereo unspecified), the GI50 is 0.692 µM and the TGI came to 14.5 µM.
Molecule `Clc1ccc(C2SCc3nc4ccccc4n32)cc1` (stereo unspecified) had a TGI greater than 100 µM.
Still for that read-out and setting: the value for `CCCCCCc1ccc(CCCCCCCC(=O)O)o1` was greater than 100 µM; that for `COc1ccc(NC(=O)CSC(=O)c2ccccc2)c(SCCSSCCSc2cc(OC)ccc2NC(=O)CSC(=O)c2ccccc2)c1` was greater than 100 µM.
Consider `COc1ccc2c3ccnc(C(F)(F)F)c3n(CCCCN)c2c1`, for which the GI50 is 6.17 µM and the TGI amounted to 19.4 µM.
As for `COc1cc(OC)c(/C=C/C(=O)c2c(OC)cc(OC)cc2OC)c(OC)c1`, the GI50 is 1.99 µM and the TGI was greater than 100 µM.
On to `CCN(CC)/N=C\c1c2ccccc2cc2ccccc12`, for which the TGI is greater than 100 µM.
Turning to `NS(=O)(=O)c1nnc(NS(=O)(=O)c2cccc3cccnc23)s1`, the TGI was greater than 100 µM.
On the same count and under the same terms, next, `Oc1ccc(-c2nc3cc(C(F)(F)F)ccc3s2)cc1`: 28.7 µM; `CC(C)N1CC2CC(CN(C(=O)c3ccc(Cl)cc3)C2)C1`: greater than 100 µM.
With `CCO/C=C\C12CCCC1NC(c1ccccc1)(c1ccccc1)O2` (stereo unspecified), the TGI was greater than 100 µM.
Regarding `CCN(CC)CCOc1nc2ccccc2c2c1-c1ccc(OC)cc1C2=O`, the GI50 was 0.461 µM and the TGI is 2.65 µM.
Molecule `CCSC12OC3(CCCCCN3C1=O)C1C(=O)N(c3ccccc3)C(=O)C12` (stereo unspecified) had a TGI greater than 100 µM.
On to `O=C(Nc1cccc([N+](=O)[O-])c1)c1cccc(C(=O)Nc2cccc([N+](=O)[O-])c2)c1`, for which the GI50 was 99.1 µM and the TGI was greater than 100 µM.
`CSc1ccc(N2C(=O)C3c4[nH]c5ccccc5c4C4CCC(C(C)(C)C)CC4C3C2=O)cc1` (stereo unspecified) yielded a TGI of 67.1 µM.
As to `CC(C)(C)NCC(O)c1ccccc1Cl` (stereo unspecified), the GI50 is greater than 100 µM and the TGI is greater than 100 µM.
`N#Cc1c(/C=C/c2ccccc2)c2c([nH]c1=S)CCCCC2` displayed a TGI greater than 100 µM.
In the case of `C=C1c2c(n(S(=O)(=O)c3ccccc3)c3ccccc23)[C@@]2(C(=O)OC)CC3C=CC2N1C3`, the TGI is greater than 100 µM.
Turning to `O=C(Nc1ccc(Cl)c(Cl)c1)c1ccc(NC2=C(Cl)C(=O)N(Cc3ccccc3)C2=O)cc1`, the GI50 was 26 µM and the TGI was 71.2 µM.
Consider `O=c1oc2ccccc2c(O)c1C(c1ccc(OCc2ccccc2)cc1)c1c(O)c2ccccc2oc1=O`, for which the TGI was greater than 100 µM.
Molecule `O=C(CC12C3C4C1C1C2C3C41CC(=O)NO)NO` (stereo unspecified) yielded a TGI greater than 100 µM.
Consider `COc1ccc(C(C2=C(O)CC(C)OC2=O)C2=C(O)CC(C)OC2=O)cc1` (stereo unspecified), for which the TGI is greater than 100 µM.
Take `CCC[CH2][Sn]1([CH2]CCC)[O]C(=O)c2cccc([N+](=O)[O-])c2C(=O)[O]1`: the GI50 is 1.49 µM and the TGI came out at 2.87 µM.
Molecule `O=[N+]([O-])c1ccc2c(c1)C(N1CCN(CCO)CC1)Cc1ccc(F)cc1S2` (stereo unspecified) had a TGI of 25.4 µM.
`Cc1ccc2ccccc2c1CSc1nc(N)nc2c1ncn2CC(C)C` yielded a TGI greater than 100 µM.
Consider `CC1C(c2ccccc2)N(C)C(c2ccccc2)C(C)C1(O)c1ccccc1` (stereo unspecified), for which the TGI was greater than 100 µM.
In turn, `CCCCCCCCCC1CC(=O)OC2=C1C(=O)CCC2` (stereo unspecified) showed a TGI greater than 100 µM.
Still for that read-out and setting: the value for `COc1cc2nc(-c3cccs3)nc(Nc3ccccc3C(=O)NN)c2cc1OC` was greater than 100 µM.
With `CC(=O)C1=C(C)N(Cc2ccccc2)C2(O)C=CC(=O)C3=C(O)c4ccccc4C(=O)C312` (stereo unspecified), the GI50 was 12.4 µM and the TGI is 26.4 µM.
The molecule `COC(=O)N[C@@H]1C[C@H]2CC[C@]1(O[Si](C(C)C)(C(C)C)C(C)C)C(=O)C2` displayed a TGI of 34.1 µM.
Turning to `N=C(N)SCc1nc(-c2ccc(Cl)cc2)no1`, the TGI is greater than 100 µM.
